According to the supplement of paper PMC8728848:
The list shows a part of the results.

Legend:
Assay in all cases: glycan array binding signal (z-score within array); higher = stronger binding
Conditions in all cases: glycan notation: IUPAC condensed, linker removed
[1] = molecular target: Neu5Ac(a2-3)Gal(b1-4)[Fuc(a1-3)]GlcNAc(b1-2)Man
Outline: (§1)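 From the Consortium for Functional Glycomics database, 3228 arrays were curated, keeping only those whose protein sequence was available. Binding is given as a within-array Z-score averaged across arrays sharing a protein sequence and across linkers. Negative Z-scores can be read as non-binding.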

[2] = molecular target: Neu5Ac(a2-3)Gal(b1-4)[Fuc(a1-3)]GlcNAc(b1-3)Gal
Outline: as §1

[3] = molecular target: Neu5Ac(a2-3)Gal(b1-4)[Fuc(a1-3)]GlcNAc(b1-3)Gal(b1-4)GlcNAc
Outline: as §1

[4] = molecular target: Neu5Ac(a2-3)Gal(b1-4)[Fuc(a1-3)]GlcNAc(b1-3)Gal(b1-4)[Fuc(a1-3)]GlcNAc(b1-3)Gal(b1-4)[Fuc(a1-3)]GlcNAc
Outline: as §1

[5] = molecular target: Neu5Ac(a2-3)Gal(b1-4)[Fuc(a1-3)]GlcNAc(b1-3)GalNAc
Outline: as §1

[6] = molecular target: Neu5Ac(a2-3)Gal(b1-4)[Fuc(a1-3)]GlcNAc(b1-6)[Gal(b1-3)]GalNAc
Outline: as §1

[7] = molecular target: Neu5Ac(a2-3)Gal(b1-4)[Fuc(a1-3)]GlcNAc(b1-6)[Neu5Ac(a2-3)Gal(b1-3)]GalNAc
Outline: as §1

[8] = molecular target: Neu5Ac(a2-3)Gal(b1-4)[Fuc(a1-3)]GlcNAc6S
Outline: as §1

[9] = molecular target: Neu5Ac(a2-3)Gal6S(b1-4)GlcNAc
Outline: as §1

[10] = molecular target: Neu5Ac(a2-3)Gal6S(b1-4)[Fuc(a1-3)]GlcNAc
Outline: as §1

Neu5Ac(a2-3)GalNAc = molecular target: Neu5Ac(a2-3)GalNAc
Outline: as §1

[11] = molecular target: Neu5Ac(a2-3)GalNAc(b1-4)GlcNAc
Outline: as §1

[12] = molecular target: Neu5Ac(a2-3)[GalNAc(b1-4)]Gal(b1-4)Glc
Outline: as §1

[13] = molecular target: Neu5Ac(a2-3)[GalNAc(b1-4)]Gal(b1-4)GlcNAc
Outline: as §1

[14] = molecular target: Neu5Ac(a2-3)[GalNAc(b1-4)]Gal(b1-4)GlcNAc(b1-3)GalNAc
Outline: as §1

[15] = molecular target: Neu5Ac(a2-3)[Neu5Ac(a2-6)]GalNAc
Outline: as §1

Neu5Ac(a2-6)Gal = molecular target: Neu5Ac(a2-6)Gal
Outline: as §1

[16] = molecular target: Neu5Ac(a2-6)Gal(b1-3)GlcNAc(b1-3)[Gal(b1-4)GlcNAc(b1-6)]Gal(b1-4)Glc
Outline: as §1

Neu5Ac(a2-6)Gal(b1-4)Glc = molecular target: Neu5Ac(a2-6)Gal(b1-4)Glc
Outline: as §1

[17] = molecular target: Neu5Ac(a2-6)Gal(b1-4)GlcNAc
Outline: as §1

[18] = molecular target: Neu5Ac(a2-6)Gal(b1-4)GlcNAc(b1-2)Man
Outline: as §1

[19] = molecular target: Neu5Ac(a2-6)Gal(b1-4)GlcNAc(b1-2)Man(a1-3)Man(b1-4)GlcNAc(b1-4)GlcNAc
Outline: as §1

[20] = molecular target: Neu5Ac(a2-6)Gal(b1-4)GlcNAc(b1-2)Man(a1-3)[Gal(b1-4)GlcNAc(b1-2)Man(a1-6)]Man(b1-4)GlcNAc(b1-4)GlcNAc
Outline: as §1

[21] = molecular target: Neu5Ac(a2-6)Gal(b1-4)GlcNAc(b1-2)Man(a1-3)[GlcNAc(b1-2)Man(a1-6)]Man(b1-4)GlcNAc(b1-4)GlcNAc
Outline: as §1

[22] = molecular target: Neu5Ac(a2-6)Gal(b1-4)GlcNAc(b1-2)Man(a1-3)[GlcNAc(b1-2)Man(b1-4)GlcNAc(b1-2)Man(a1-6)]Man(b1-4)GlcNAc(b1-4)GlcNAc
Outline: as §1

[23] = molecular target: Neu5Ac(a2-6)Gal(b1-4)GlcNAc(b1-2)Man(a1-3)[GlcNAc(b1-4)][Neu5Ac(a2-6)Gal(b1-4)GlcNAc(b1-2)Man(a1-6)]Man(b1-4)GlcNAc(b1-4)GlcNAc
Outline: as §1

[24] = molecular target: Neu5Ac(a2-6)Gal(b1-4)GlcNAc(b1-2)Man(a1-3)[Man(a1-6)]Man(b1-4)GlcNAc(b1-4)GlcNAc
Outline: as §1

[25] = molecular target: Neu5Ac(a2-6)Gal(b1-4)GlcNAc(b1-2)Man(a1-3)[Neu5Ac(a2-3)Gal(b1-4)GlcNAc(b1-2)Man(a1-6)]Man(b1-4)GlcNAc(b1-4)GlcNAc
Outline: as §1

[26] = molecular target: Neu5Ac(a2-6)Gal(b1-4)GlcNAc(b1-2)Man(a1-3)[Neu5Ac(a2-6)Gal(b1-4)GlcNAc(b1-2)Man(a1-6)]Man(b1-4)GlcNAc(b1-4)GlcNAc
Outline: as §1

B1: Siglec-7-SA-PE-180 (Homo sapiens), Q9Y286 (protein)
chain: MLLLLLLPLLWGRERVEGQKSNRKDYSLTMQSSVTVQEGMCVHVRCSFSYPVDSQTDSDPVHGYWFRAGNDISWKAPVATNNPAWAVQEETRDRFHLLGDPQTKNCTLSIRDARMSDAGRYFFRMEKGNIKWNYKYDQLSVNVTALTHRPNILIPGTLESGCFQNLTCSVPWACEQGTPPMISWMGTSVSPLHPSTTRSSVLTLIPQPQHHGTSLTCQVTLPGAGVTTNRTIQLNVSYPPQNLTVTVFQGEGTASTALGNSSSLSVLEGQSLRLVCAVDSNPPARLSWTWRSLTLYPSQPSNPLVLELQVHLGDEGEFTCRAQNSLGSQHVSLNLSLQQEYTGKMRPVSGVLLGAVGGAGATALVFLSFCVIFIVVRSCRKKSARPAADVGDIGMKDANTIRGSASQGNLTESWADDNPRHHGLAAHSSGEEREIQYAPLSFHKGEPQDLSGQEATNNEYSEIKIPK
glycan array binding signal (z-score) [1]: 0.327
glycan array binding signal (z-score) [2]: -0.107
glycan array binding signal (z-score) [3]: -0.352
glycan array binding signal (z-score) [4]: -0.309
glycan array binding signal (z-score) [5]: 0.319
glycan array binding signal (z-score) [6]: 0.087
glycan array binding signal (z-score) [7]: 0.018
glycan array binding signal (z-score) [8]: 1.48
glycan array binding signal (z-score) [9]: 2.67
glycan array binding signal (z-score) [10]: 0.193
glycan array binding signal (z-score) (Neu5Ac(a2-3)GalNAc): 0.352
glycan array binding signal (z-score) [11]: 0.776
glycan array binding signal (z-score) [12]: -0.213
glycan array binding signal (z-score) [13]: 0.018
glycan array binding signal (z-score) [14]: 0.025
glycan array binding signal (z-score) [15]: 3.03
glycan array binding signal (z-score) (Neu5Ac(a2-6)Gal): 0.788
glycan array binding signal (z-score) [16]: -0.362
glycan array binding signal (z-score) (Neu5Ac(a2-6)Gal(b1-4)Glc): 0.151
glycan array binding signal (z-score) [17]: 0.3
glycan array binding signal (z-score) [18]: -0.372
glycan array binding signal (z-score) [19]: -0.047
glycan array binding signal (z-score) [20]: -0.303
glycan array binding signal (z-score) [21]: -0.249
glycan array binding signal (z-score) [22]: -0.402
glycan array binding signal (z-score) [23]: -0.177
glycan array binding signal (z-score) [24]: -0.028
glycan array binding signal (z-score) [25]: 0.991
glycan array binding signal (z-score) [26]: -0.088
